Source: article PMC9723119
No constants are given. Whether binding was seen depends on the method and setting. In cells and extracts the contact can be indirect. Some results given as binding are weak or reduced against the parent protein; the word gives no strength.

The chains behind the UniProt entries cited, without tags or fusion partners.
UniProt Q9Y572: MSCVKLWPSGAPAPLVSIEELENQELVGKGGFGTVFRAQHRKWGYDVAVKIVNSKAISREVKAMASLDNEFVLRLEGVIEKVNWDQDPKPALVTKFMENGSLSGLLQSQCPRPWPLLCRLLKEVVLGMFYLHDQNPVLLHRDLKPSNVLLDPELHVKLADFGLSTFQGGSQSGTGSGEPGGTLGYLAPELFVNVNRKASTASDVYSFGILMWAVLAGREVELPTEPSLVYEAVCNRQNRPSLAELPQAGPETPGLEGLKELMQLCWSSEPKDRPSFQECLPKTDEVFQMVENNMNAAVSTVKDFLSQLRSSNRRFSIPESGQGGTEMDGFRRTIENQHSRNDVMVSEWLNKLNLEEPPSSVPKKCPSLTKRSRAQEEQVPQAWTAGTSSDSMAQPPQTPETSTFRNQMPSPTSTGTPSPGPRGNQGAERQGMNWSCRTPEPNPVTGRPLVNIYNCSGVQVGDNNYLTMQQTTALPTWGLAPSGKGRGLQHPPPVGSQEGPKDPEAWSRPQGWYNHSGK
UniProt Q14790: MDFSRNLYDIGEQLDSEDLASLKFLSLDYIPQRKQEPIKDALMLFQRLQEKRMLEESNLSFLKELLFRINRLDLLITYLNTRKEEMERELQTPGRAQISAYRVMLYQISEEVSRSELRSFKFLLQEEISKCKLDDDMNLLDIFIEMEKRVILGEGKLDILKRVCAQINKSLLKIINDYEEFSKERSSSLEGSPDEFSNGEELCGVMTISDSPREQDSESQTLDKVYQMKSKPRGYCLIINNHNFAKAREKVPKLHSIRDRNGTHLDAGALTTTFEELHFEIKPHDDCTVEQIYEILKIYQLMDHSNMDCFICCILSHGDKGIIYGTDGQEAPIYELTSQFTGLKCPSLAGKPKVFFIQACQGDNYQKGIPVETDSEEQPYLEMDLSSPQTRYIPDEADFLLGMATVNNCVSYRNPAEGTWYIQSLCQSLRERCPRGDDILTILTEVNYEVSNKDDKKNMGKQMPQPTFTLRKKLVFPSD
UniProt Q13546: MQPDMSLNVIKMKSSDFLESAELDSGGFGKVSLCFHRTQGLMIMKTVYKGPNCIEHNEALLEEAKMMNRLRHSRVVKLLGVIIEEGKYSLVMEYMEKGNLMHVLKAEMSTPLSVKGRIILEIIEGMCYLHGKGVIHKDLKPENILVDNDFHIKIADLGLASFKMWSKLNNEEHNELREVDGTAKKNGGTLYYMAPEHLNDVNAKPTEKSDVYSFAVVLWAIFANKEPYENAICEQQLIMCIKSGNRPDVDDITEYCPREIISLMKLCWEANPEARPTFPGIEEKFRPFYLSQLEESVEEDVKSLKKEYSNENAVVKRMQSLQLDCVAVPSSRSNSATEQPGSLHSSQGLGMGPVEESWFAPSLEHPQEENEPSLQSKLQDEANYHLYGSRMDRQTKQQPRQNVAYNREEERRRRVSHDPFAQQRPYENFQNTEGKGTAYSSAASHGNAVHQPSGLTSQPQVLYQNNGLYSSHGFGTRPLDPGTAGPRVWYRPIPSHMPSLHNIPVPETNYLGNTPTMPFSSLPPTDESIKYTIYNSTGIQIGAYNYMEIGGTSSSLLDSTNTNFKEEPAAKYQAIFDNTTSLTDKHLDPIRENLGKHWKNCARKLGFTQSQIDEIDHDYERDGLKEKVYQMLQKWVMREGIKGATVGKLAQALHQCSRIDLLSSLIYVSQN
UniProt P29466: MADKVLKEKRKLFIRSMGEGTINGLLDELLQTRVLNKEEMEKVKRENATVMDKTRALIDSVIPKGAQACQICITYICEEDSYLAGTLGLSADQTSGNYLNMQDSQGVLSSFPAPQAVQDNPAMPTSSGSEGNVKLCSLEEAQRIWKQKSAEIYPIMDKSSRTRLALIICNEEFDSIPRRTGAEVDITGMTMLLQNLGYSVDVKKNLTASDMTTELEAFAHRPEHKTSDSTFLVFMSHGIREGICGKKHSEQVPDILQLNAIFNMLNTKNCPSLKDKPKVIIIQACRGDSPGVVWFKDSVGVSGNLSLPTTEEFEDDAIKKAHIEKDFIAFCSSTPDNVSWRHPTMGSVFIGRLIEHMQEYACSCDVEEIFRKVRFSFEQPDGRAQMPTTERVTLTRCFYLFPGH

B1: Pyrin (protein, UniProt O15553 1-781)
chain: MAKTPSDHLLSTLEELVPYDFEKFKFKLQNTSVQKEHSRIPRSQIQRARPVKMATLLVTYYGEEYAVQLTLQVLRAINQRLLAEELHRAAIQEYSTQENGTDDSAASSSLGENKPRSLKTPDHPEGNEGNGPRPYGGGAASLRCSQPEAGRGLSRKPLSKRREKASEGLDAQGKPRTRSPALPGGRSPGPCRALEGGQAEVRLRRNASSAGRLQGLAGGAPGQKECRPFEVYLPSGKMRPRSLEVTISTGEKAPANPEILLTLEEKTAANLDSATEPRARPTPDGGASADLKEGPGNPEHSVTGRPPDTAASPRCHAQEGDPVDGTCVRDSCSFPEAVSGHPQASGSRSPGCPRCQDSHERKSPGSLSPQPLPQCKRHLKQVQLLFCEDHDEPICLICSLSQEHQGHRVRPIEEVALEHKKKIQKQLEHLKKLRKSGEEQRSYGEEKAVSFLKQTEALKQRVQRKLEQVYYFLEQQEHFFVASLEDVGQMVGQIRKAYDTRVSQDIALLDALIGELEAKECQSEWELLQDIGDILHRAKTVPVPEKWTTPQEIKQKIQLLHQKSEFVEKSTKYFSETLRSEMEMFNVPELIGAQAHAVNVILDAETAYPNLIFSDDLKSVRLGNKWERLPDGPQRFDSCIIVLGSPSFLSGRRYWEVEVGDKTAWILGACKTSISRKGNMTLSPENGYWVVIMMKENEYQASSVPPTRLLIKEPPKRVGIFVDYRVGSISFYNVTARSHIYTFASCSFSGPLQPIFSPGTRDGGKNTAPLTICPVGGQGPD
B2: Z-DNA-binding protein 1 (ZBP1) (protein, UniProt Q9H171 1-429)
chain: MAQAPADPGREGHLEQRILQVLTEAGSPVKLAQLVKECQAPKRELNQVLYRMKKELKVSLTSPATWCLGGTDPEGEGPAELALSSPAERPQQHAATIPETPGPQFSQQREEDIYRFLKDNGPQRALVIAQALGMRTAKDVNRDLYRMKSRHLLDMDEQSKAWTIYRPEDSGRRAKSASIIYQHNPINMICQNGPNSWISIANSEAIQIGHGNIITRQTVSREDGSAGPRHLPSMAPGDSSTWGTLVDPWGPQDIHMEQSILRRVQLGHSNEMRLHGVPSEGPAHIPPGSPPVSATAAGPEASFEARIPSPGTHPEGEAAQRIHMKSCFLEDATIGNSNKMSISPGVAGPGGVAGSGEGEPGEDAGRRPADTQSRSHFPRDIGQPITPSHSKLTPKLETMTLGNRSHKAAEGSHYVDEASHEGSWWGGGI
B3: AIM2 (protein, UniProt O14862 1-343)
chain: MESKYKEILLLTGLDNITDEELDRFKFFLSDEFNIATGKLHTANRIQVATLMIQNAGAVSAVMKTIRIFQKLNYMLLAKRLQEEKEKVDKQYKSVTKPKPLSQAEMSPAASAAIRNDVAKQRAAPKVSPHVKPEQKQMVAQQESIREGFQKRCLPVMVLKAKKPFTFETQEGKQEMFHATVATEKEFFFVKVFNTLLKDKFIPKRIIIIARYYRHSGFLEVNSASRVLDAESDQKVNVPLNIIRKAGETPKINTLQTQPLGTIVNGLFVVQKVTEKKKNILFDLSDNTGKMEVLGVRNEDTMKCKEGDKVRLTFFTLSKNGEKLQLTSGVHSTIKVIKAKKKT

How the values were obtained:
[1] = molecular target: RIP kinase 3 (RIPK3) (human (endogenous in AC-16)) (UniProt Q9Y572); assay: condition: only control cardiomyocytes without DOX challenge; co-IP; RIPK3 immune complexes from control AC-16 cardiomyocytes without DOX challenge; blots of the endogenous partners
[2] = molecular target: RIP kinase 3 (RIPK3) (human (endogenous in AC-16)) (UniProt Q9Y572); assay: co-IP; RIPK3 immune complexes from DOX-treated AC-16 cardiomyocytes, with scrambled or AIM2 siRNA; blots of the endogenous partners; IgG control

Row | Molecule | binding [1] | binding [2]
1 | Caspase8 (from UniProt Q14790 1-479) (enzyme) | no binding | binds
2 | RIP kinase 1 (RIPK1) (from UniProt Q13546 1-671) | no binding | binds
3 | Caspase1 (from UniProt P29466 1-404) (enzyme) | no binding | binds
4 | B1 | no binding | binds
5 | B2 | no binding | binds
6 | B3 | no binding | binds
